# Among all 310,000 compounds or so, about 18,000 (5.8%) were called active. This list was built around the results that the source calls inconclusive (neither active nor inactive); the mix of calls is not that of the screen. Calls follow the shape of the dose curve; as a rule, active = well fitted inhibition curve with a large enough effect; inconclusive = small, poorly fitted or top-dose-only effect, or another doubt; inactive = no such curve, though single readings can be large or run the other way. No potency is given beside an inconclusive call; the fits are too rough.
# Assay: Primary qHTS for delayed death inhibitors of the malarial parasite plastid, 48 hour incubation
# Details: P. falciparum luciferase growth in erythrocytes; series mostly up to 28.7 µM; activity change, negative = inhibition: at the top concentration
# How it was run: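 Luciferase-expressing parasites in RBCs, 2% Hct / 0.1% parasitemia final; RPMI 1640 + 0.5% Albumax; 37 C, 5% CO2, one generation; luminescence read-out, lower signal = inhibition.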
# % is scaled to controls: 0 for no effect and ±100 for the full control effect; potency is read from the fitted curve at half-maximal effect; tags tell the direction and shape of the fitted curve.
Structure (SMILES),Potency,"activity change, negative = inhibition"
CC1CC2(C)Oc3ccccc3CC2C(C)C1CNCCCN(C)C (centres undefined),"inconclusive [inhibitor, partial curve, poor fit]",–
Cc1ccc(/C=C2/NC(=O)N(Cc3ccccc3)C2=O)o1,–,inactive: -19.1%
COc1ccc(CCNC(=O)CCCn2c(=O)c3cccn3c3cccnc32)c(OC)c1,"inconclusive [inhibitor, partial curve, poor fit]",–
CC12CCC(C(=O)N(c3ccc(Cl)cc3)C1=O)C2(C)C (centres undefined),"inconclusive [inhibitor, partial curve]",–
O=C1c2cccc3cccc(c23)C(=O)N1CCCN1CCN(c2ccc(F)cc2)CC1,–,inactive: -12.6%
C=CCSc1nnc(C)n1-c1ccc(Cl)cc1,"inconclusive [inhibitor, single point]",–
CCCCN(CC)S(=O)(=O)c1ccc(C(=O)Nc2nnc(CSC)o2)cc1,"inconclusive [inhibitor, partial curve, poor fit]",–
CSc1ccccc1OCc1cc(C(=O)NCC(C)(C)N2CCOCC2)no1,"inconclusive [inhibitor, partial curve, poor fit]",–
O=C(CCCn1c(SCC(=O)NCCc2ccccc2)nc2ccccc2c1=O)NCC1CCCO1 (centres undefined),"inconclusive [inhibitor, single point]",–
COc1ccc(C2(c3ccc(O)cc3O)CC(c3ccccc3Cl)NC(=S)N2)cc1 (centres undefined),active: 11.7 µM,–
COc1ccc(CN2CCN(C(=O)COc3ccc4ccccc4c3)CC2)c(OC)c1,"inconclusive [inhibitor, partial curve, poor fit]",–
COc1ccccc1CN1CC(C(=O)NCc2nc3ccccc3n2C)CCC1=O (centres undefined),–,inactive: -16.2%
O=C(c1cc(-c2ccc3c(c2)OCO3)on1)N1CCN(c2ccccc2)CC1,–,inactive: 249%
Cc1ccc(-n2c(C)cc3c2CCCC3=O)cc1,active: 10.4 µM,–
O=C(Cn1c(=O)oc2cc(S(=O)(=O)N3CCCC3)ccc21)N1CCN(c2ccccc2F)CC1,"inconclusive [inhibitor, single point]",–
CN1CC2=Cc3ccccc3OC23Oc2ccccc2C=C3C1,active: 9.28 µM,–
CCOCCCNC(=S)NCCNc1nc2c(C)cccc2cc1C#N,"inconclusive [inhibitor, single point]",–
Cc1ccsc1/C=C1/SC(N2CCOCC2)=NC1=O,"inconclusive [inhibitor, single point]",–
CC(NC(=O)[C@H](Cc1c[nH]c2ccccc12)NC(=O)[C@@H]1Cc2ccccc2CN1)c1ccccc1 (some centres undefined),"inconclusive [inhibitor, partial curve, poor fit]",–
O=C(COC(=O)c1ccc[nH]c1=O)NCCc1ccc(Cl)cc1Cl,–,inactive: 292%
Cc1ccc(O)c(C(=O)c2cnc3c(c2)c(C)nn3-c2ccccc2)c1,–,inactive: 0%
c1ccc2cc3c(NCCN4CCOCC4)ccnc3cc2c1,active: 0.147 µM,–
CCCOc1ccc2ccccc2c1/C=C1\SC(=O)NC1=O,–,inactive: -17.8%

Structure (SMILES),Potency,"activity change, negative = inhibition"
Cc1ccc(Cn2cnc3ccccc32)cc1C,–,inactive: -21.5%
CC1CCC2(CC1)NC(=O)N(CC(=O)Nc1ccc3c(c1)OCCO3)C2=O (centres undefined),–,inactive: 120%
CCOC(=O)/C(=N\Nc1cc(Cl)ccc1Cl)N1CC(C)OC(C)C1 (centres undefined),"inconclusive [inhibitor, single point]",–
O=C(NC1CCCCC1)C(c1cccs1)N(C(=O)C(F)(F)F)c1ccccc1 (centres undefined),"inconclusive [inhibitor, partial curve, poor fit]",–
COCC(C)n1c(C)cc(C(=O)CSc2cc(C)c3ccccc3n2)c1C (centres undefined),"inconclusive [inhibitor, single point]",–
O=C(CN1CCN(c2ccccc2O)CC1)Nc1ccnn1C1CCCC1,"inconclusive [inhibitor, single point]",–
CCCCn1c(N)c(N(CCOC)C(=O)COC(=O)/C=C/c2ccc(Br)cc2)c(=O)[nH]c1=O,–,inactive: 1.69%
COc1ccc(N2CCN(C(c3cccs3)C(C)NC(=O)c3ccc4c(c3)OCO4)CC2)cc1 (centres undefined),"inconclusive [inhibitor, partial curve, poor fit]",–
CC1(C)CC(=O)C2=C(C1)N(c1cccc(O)c1)C1=C(C2)C(=O)CC(C)(C)C1,"inconclusive [inhibitor, single point]",–
O=C(CN1CCC(NC(=O)Cc2ccccc2)CC1)Nc1cccc2ccccc12,"inconclusive [inhibitor, partial curve]",–
COC(=O)c1ccccc1N=Nc1c(C)noc1C,–,inactive: 9.23%
CC(C)c1ccc(N(C(=O)c2snc(C(N)=O)c2N)C(C(=O)NCC2CCCO2)c2ccc(N(C)C)cc2)cc1 (centres undefined),"inconclusive [inhibitor, full curve, poor fit]",–
Cc1nn(Cc2c(F)c(F)c(F)c(F)c2F)c(C)c1NC(=O)c1ccc(COc2ccc(F)cc2)o1,"inconclusive [inhibitor, single point]",–
CCN(CC)CCN(C(=O)c1ccc2c(c1)OCCO2)c1nc2c(Cl)cccc2s1,"inconclusive [inhibitor, partial curve, poor fit]",–
CCc1ccccc1N(C)S(=O)(=O)c1ccc2[nH]cc(C(=O)N3CCc4ccccc43)c(=O)c2c1,"inconclusive [inhibitor, partial curve, poor fit]",–
CCN(CC)CCNC(=O)c1sc2ncn(CC(=O)Nc3ccc(C)c(Cl)c3)c(=O)c2c1C,"inconclusive [inhibitor, single point]",–
COc1ccc(-c2csc(NC3OC(=O)c4ccccc43)n2)cc1 (centres undefined),"inconclusive [inhibitor, partial curve, poor fit]",–
Cn1c(OCc2cccnc2)nc2c1c(=O)n(Cc1ccc(Br)cc1)c(=O)n2C,"inconclusive [inhibitor, partial curve]",–
CCCCOc1ccc(C2CC(=O)NC2=O)cc1 (centres undefined),–,inactive: 42%
O=[N+]([O-])c1cc(/C=N/OCc2c(Cl)cccc2Cl)ccc1N1CCOCC1,"inconclusive [inhibitor, single point]",–
Cc1cc(-c2nnc(CCC(=O)NC(C)c3ccc(F)cc3)o2)no1 (centres undefined),–,inactive: 40.8%
O=C(CN1C(=O)NC2(CCCC2)C1=O)N1CCN(S(=O)(=O)c2cc(Cl)ccc2Cl)CC1,"inconclusive [inhibitor, partial curve, poor fit]",–
COc1cccc(-n2c(SCc3c(C)noc3C)nnc2-c2cccc(S(=O)(=O)N(C)C)c2)c1,active: 11.7 µM,–

Structure (SMILES),Potency,"activity change, negative = inhibition"
Cc1ccc(C(=O)O/N=C(\N)c2ccccn2)c(C)c1,"inconclusive [inhibitor, partial curve, poor fit]",–
COc1ccccc1C(=O)N/C(=C\c1cn(C)c2ccccc12)C(=O)N1CCCC1,"inconclusive [inhibitor, partial curve, poor fit]",–
CCc1cc2c(=O)c(-c3nc4ccccc4n3C)coc2c(CN2CCCCC2C)c1O (centres undefined),"inconclusive [inhibitor, partial curve]",–
C(=N\Nc1ncnc2sc3c(c12)CCC3)/c1cccs1,–,inactive: 6.42%
O=C(CSCc1ccccc1)Nc1ccc(F)c(F)c1,–,inactive: 56.7%
C1CCC(c2nn3c(-c4n[nH]c5c4CCC5)nnc3s2)CC1,"inconclusive [inhibitor, single point]",–
CCc1ccccc1N(C)S(=O)(=O)c1ccc(-c2cc(C)no2)s1,"inconclusive [inhibitor, single point]",–
Cc1cc(C)nc(NS(=O)(=O)c2ccc(NC(=O)C3COc4ccccc4O3)cc2)n1 (centres undefined),–,inactive: -0.815%
COc1ccc2nc(NC(=O)CSc3nnc(C)n3N)sc2c1,–,inactive: 157%
Cc1ccc(NC(=O)Cn2nnc(-c3ccccc3NC(=O)c3cccs3)n2)cc1,active: 13.1 µM,–
Cc1cc(C)cc(N2C(=O)NC(=O)/C(=C/c3cccn3-c3ccc(Cl)cc3)C2=O)c1,–,inactive: 17.4%
COc1ccc(CN(C)C(=O)c2ccc(NC(=O)CC3SC(N4CCCC4)=NC3=O)cc2)c(OC)c1 (centres undefined),"inconclusive [inhibitor, partial curve]",–
Cc1cc(S(=O)(=O)NCc2ccccc2)ccc1OCC(=O)N1CCN(C)CC1,"inconclusive [inhibitor, partial curve, poor fit]",–
CCCc1nnc(NC(=O)c2cn(CC)c3cc(N4CCN(C)CC4)c(F)cc3c2=O)s1,active: 0.37 µM,–
O=C(c1ccc(N2CCN(C(=O)c3ccc(F)cc3F)CC2)cc1)c1cccc(F)c1,"inconclusive [inhibitor, partial curve]",–
c1ccc(Cc2nnc(N3CCCCC3)c3ccccc23)cc1,–,inactive: 52.9%
COc1ccc(S(=O)(=O)Nc2ccccc2C)cc1C(=O)N1CCOCC1,"inconclusive [inhibitor, partial curve, poor fit]",–
Cn1c(=O)c2cc(NC(=O)c3ccccc3Cl)c(=O)oc2n(C)c1=O,–,inactive: -4.37%
Cc1cccc(C(=O)Nc2c(C#N)c(C)c(C)n2Cc2ccccc2)c1,"inconclusive [inhibitor, single point]",–
Cc1cccc(N2CCN(C(=O)CCS(=O)(=O)c3ccc4c(c3)oc(=O)n4C)CC2)c1C,active: 13.1 µM,–
COc1cc(/C=N/NC(=O)c2ccccc2)ccc1O,–,inactive: 71.1%
O=C(Nc1cccc(F)c1)c1ccc(S(=O)(=O)N2CCCCC2)cc1,"inconclusive [inhibitor, partial curve]",–
Cc1ccc2oc(=O)c3cc(C(=O)NCCCN4CCCC(C)C4)sc3c2c1 (centres undefined),active: 4.15 µM,–
